Data from the supplement of paper PMC9174493.
The other results are listed elsewhere or left out. Single values of this set are uncertain. Values with irradiation are relative to irradiated vehicle.

Experiments:
A549-Dual [1] = experiment: NF-kB reporter (SEAP) activity, viability-corrected, relative to vehicle (fold change vs vehicle); higher = more activation of STING-IRF / NF-kB immune response reporter; details: 10 µM
A549-Dual [2] = experiment: ISRE reporter (Lucia luciferase) activity, viability-corrected, relative to vehicle (fold change vs vehicle); higher = more activation of STING-IRF / NF-kB immune response reporter; details: 10 µM
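For NF-kB reporter (SEAP) activity, viability-corrected, relative to vehicle in this document: viability correction based on the alamar blue assay, with concentrations leaving 10% survival or less dropped.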

SMILES | NF-kB reporter (A549-Dual [1]; irradiation: 8 Gy/4 fr) | NF-kB reporter (A549-Dual [1]; irradiation: none) | ISRE reporter (A549-Dual [2]; irradiation: 8 Gy/4 fr) | ISRE reporter (A549-Dual [2]; irradiation: none)
CC1=C(C(=O)O)N2C(=O)C(NC(=O)C(N)C3=CCC=CC3)C2SC1.O (stereo not drawn) [Cephradine monohydrate] | 0.774 | 1.08 | 0.705 | 0.827
O=C(O)c1cc2ccccc2c(Cc2c(O)c(C(=O)O)cc3ccccc23)c1O.OCCOCCN1CCN(C(c2ccccc2)c2ccc(Cl)cc2)CC1 [Hydroxyzine pamoate] | 1.44 | 0.983 | 0.57 | 0.471
Clc1ccc(C(Cn2ccnc2)OCc2c(Cl)cccc2Cl)c(Cl)c1.O=[N+]([O-])O (stereo not drawn) [Isoconazole nitrate] | 0.463 | 0.493 | 0.438 | 0.397
COC1OC(COS(=O)(=O)[O-])C(OC2OC(C(=O)[O-])C(OC3OC(COS(=O)(=O)[O-])C(OC4OC(C(=O)[O-])C(OC5OC(COS(=O)(=O)[O-])C(O)C(O)C5NS(=O)(=O)[O-])C(O)C4O)C(OS(=O)(=O)[O-])C3NS(=O)(=O)[O-])C(O)C2OS(=O)(=O)[O-])C(O)C1NS(=O)(=O)[O-].[Na+].[Na+].[Na+].[Na+].[Na+].[Na+].[Na+].[Na+].[Na+].[Na+] (stereo not drawn) [Fondaparinux Sodium] | 1.03 | 0.99 | 0.832 | 0.946
CCCc1nn(C)c2c(=O)[nH]c(-c3cc(S(=O)(=O)N4CCN(C)CC4)ccc3OCC)nc12.O=C(O)CC(O)(CC(=O)O)C(=O)O [Sildenafil Citrate] | 0.782 | 0.551 | 0.878 | 0.819
CN(C)CCOC(c1ccccc1)c1ccccc1.Cn1c(=O)c2[nH]c(Cl)nc2n(C)c1=O [Dimenhydrinate] | 0.876 | 1 | 1.08 | 1.02
Cc1nc[nH]c1CN1CCc2c(c3ccccc3n2C)C1=O.Cl [Alosetron Hydrochloride] | 0.64 | 0.882 | 0.501 | 0.592
CCC1C(=O)OCC1Cc1cncn1C.Cl (stereo not drawn) [Pilocarpine HCl] | 0.969 | 0.75 | 0.901 | 0.634
Cc1c(C(=O)NN2CCCCC2)nn(-c2ccc(Cl)cc2Cl)c1-c1ccc(Cl)cc1 [Rimonabant] | 0.591 | 0.652 | 0.52 | 0.642
O=C(O)c1cccnc1 [Nicotinic Acid] | 0.946 | 0.847 | 0.939 | 0.877
O=C(OC1Cc2c(O)cc(O)cc2OC1c1ccc(O)c(O)c1)c1cc(O)c(O)c(O)c1 (single isomer, unassigned; (-)) [(-)-Epicatechin gallate] | 0.684 | 0.572 | 0.645 | 0.446
C1CCNC1 [Pyrrolidine] | 0.833 | 0.907 | 0.809 | 0.779
CC1COc2c(N3CCN(C)CC3)c(F)cc3c(=O)c(C(=O)O)cn1c23 (stereo not drawn) [Levofloxacin hydrate] | 0.862 | 0.988 | 0.838 | 0.729
COc1cc(C(=O)O)ccc1O [Vanillic acid] | 0.878 | 0.63 | 0.925 | 0.721
Cl.O=C1CC2(CCCC2)CC(=O)N1CCCCN1CCN(c2ncccn2)CC1 [Buspirone HCl] | 1 | 1.07 | 0.889 | 0.833
COCC1CC(c2ncc(-c3ccc4c(c3)COc3cc5c(ccc6[nH]c(C7CCC(C)N7C(=O)C(NC(=O)OC)C(C)C)nc65)cc3-4)[nH]2)N(C(=O)C(NC(=O)OC)c2ccccc2)C1 (stereo not drawn) [Velpatasvir] | 0.812 | 0.982 | 0.869 | 1.27
O=C1NC(c2ccccc2)(c2ccccc2)C(=O)N1COP(=O)([O-])[O-].[Na+].[Na+] [Fosphenytoin (disodium)] | 0.691 | 0.856 | 0.654 | 0.614
CCC1C(O)C2C3CCC(C(C)CCC(=O)O)C3(C)CCC2C2(C)CCC(O)CC12 (stereo not drawn) [Obeticholic Acid] | 0.666 | 0.801 | 0.546 | 0.797
COC(=O)c1ccc2c(c1)NC(=O)/C2=C(\Nc1ccc(N(C)C(=O)CN2CCN(C)CC2)cc1)c1ccccc1 [Nintedanib (BIBF 1120)] | 1.26 | 1.86 | 1.05 | 1.89
OCCN1CCN(CCCN2c3ccccc3Sc3ccc(Cl)cc32)CC1 [Perphenazine] | 0.491 | 0.839 | 0.511 | 0.914
C/C=C/C=C/C(=O)O [Sorbic acid] | 0.727 | 0.901 | 0.617 | 0.708
Nc1ccc(S(N)(=O)=O)cc1 [Sulfanilamide] | 1.06 | 1.09 | 1.29 | 1.02
CCCC1CC(C(=O)NC(C(C)Cl)C2OC(SC)C(O)C(O)C2O)N(C)C1.Cl (stereo not drawn) [Clindamycin HCl] | 0.989 | 0.941 | 1 | 0.923
CC(=O)Oc1ccc(C(c2ccc(OC(C)=O)cc2)c2ccccn2)cc1 [Bisacodyl] | 0.807 | 0.76 | 0.561 | 0.533
C1CCN2CC3CC(CN4CCCCC34)C2C1.O.O.O.O.O.O=S(=O)(O)O (single isomer, unassigned; (-)) [(-)-Sparteine Sulfate] | 1.04 | 0.833 | 0.932 | 0.684
Nc1ncn(C2CC(O)C(CO)O2)c(=O)n1 (stereo not drawn) [Decitabine] | 0.643 | 1.1 | 0.606 | 1.4

SMILES | NF-kB reporter (A549-Dual [1]; irradiation: 8 Gy/4 fr) | NF-kB reporter (A549-Dual [1]; irradiation: none) | ISRE reporter (A549-Dual [2]; irradiation: 8 Gy/4 fr) | ISRE reporter (A549-Dual [2]; irradiation: none)
CC12CCC(=O)C=C1C=CC1C2CCC2(C)C1CCC21CCC(=O)O1 (stereo not drawn) [Canrenone] | 0.578 | 0.681 | 0.65 | 0.636
CCn1cc(C(=O)O)c(=O)c2cnc(N3CCNCC3)nc21 [Pipemidic acid] | 0.871 | 1.09 | 0.746 | 0.975
CN(C)CCCN1c2ccccc2Sc2ccc(C(F)(F)F)cc21.Cl [Triflupromazine hydrochloride] | 0.827 | 1.19 | 0.904 | 1.4
CCCCN(CCCC)CC(O)c1cc(Cl)cc2c1-c1ccc(Cl)cc1/C2=C/c1ccc(Cl)cc1 (stereo not drawn) [Lumefantrine] | 0.678 | 1.05 | 0.555 | 0.846
CCOc1ccc2c(c1)C(C)=CC(C)(C)N2 [Ethoxyquin] | 0.914 | 0.996 | 1.04 | 0.946
C#CCN(C)CCCOc1ccc(Cl)cc1Cl.Cl [Clorgyline HCl] | 1.17 | 1.34 | 0.99 | 1.08
Nc1nc(O)c2c(n1)NCC(CNc1ccc(C(=O)NC(CCC(=O)[O-])C(=O)[O-])cc1)N2C=O.[Ca+2] (stereo not drawn) [Calcium folinate] | 0.941 | 0.658 | 0.971 | 0.802
CC(C)N(CCCCOCC(=O)NS(C)(=O)=O)c1cnc(-c2ccccc2)c(-c2ccccc2)n1 [Selexipag] | 0.531 | 0.8 | 0.554 | 0.768
CCOC(=O)n1ccn(C)c1=S [Carbimazole] | 0.829 | 0.949 | 0.791 | 0.803
C=C1/C(=C\C=C2/CCCC3(C)C2CCC3C(C)CCCC(C)(C)O)CC(O)CC1O (stereo not drawn) [Calcitriol] | 0.518 | 0.669 | 0.392 | 0.716
Cc1cc(/C=C/c2ccc3cc(N(C)C)ccc3[n+]2C)c(C)n1-c1ccccc1.Cc1cc(/C=C/c2ccc3cc(N(C)C)ccc3[n+]2C)c(C)n1-c1ccccc1.O=C([O-])c1cc2ccccc2c(Cc2c(O)c(C(=O)[O-])cc3ccccc23)c1O [pyrvinium] | 1.12 | 3.6 | 0.185 | 1.59
COc1nccnc1NS(=O)(=O)c1ccc(N)cc1 [Sulfalene(SMPZ)] | 1.39 | 1.55 | 1.5 | 1.03
CN(C)CCN(Cc1ccccc1)c1ccccn1.Cl [Tripelennamine HCl] | 0.771 | 1.23 | 0.662 | 0.705
COC1=CC(=O)CC(C)C12Oc1c(Cl)c(OC)cc(OC)c1C2=O (stereo not drawn) [Griseofulvin] | 0.715 | 0.859 | 1.16 | 2.6
Cl.Nc1ncnc2[nH]cnc12 [Adenine HCl] | 0.735 | 0.559 | 0.761 | 0.624
Cc1ncc(CO)c(CO)c1O [Pyridoxine] | 0.933 | 0.867 | 1.04 | 0.838
CC1(C)SC2CC(=O)N2C1C(=O)OCOC(=O)C1N2C(=O)C(NC(=O)C(N)c3ccccc3)C2S(=O)(=O)C1(C)C.Cc1ccc(S(=O)(=O)O)cc1 (stereo not drawn) [Sultamicillin Tosylate] | 0.824 | 0.916 | 0.843 | 0.74
Cc1nc(C)c(Cl)c(O)c1Cl [Clopidol] | 0.772 | 0.816 | 0.825 | 0.855
Cc1c(C(N)=O)cc([N+](=O)[O-])cc1[N+](=O)[O-] [Dinitolmide] | 0.888 | 1.16 | 0.93 | 0.952
Nc1ccn(C2OC(CO)C(O)C2O)c(=O)n1 (stereo not drawn) [Cytidine] | 0.836 | 0.805 | 0.964 | 0.813
CO/N=C(/C(=O)NC1C(=O)N2C(C(=O)O)=C(CSC(=O)c3ccco3)CSC12)c1csc(N)n1.Cl (stereo not drawn) [Ceftiofur HCl] | 0.683 | 1.08 | 0.71 | 0.864
CCCCN1CCCCC1C(=O)Nc1c(C)cccc1C.Cl (stereo not drawn) [Levobupivacaine HCl] | 0.598 | 0.725 | 0.689 | 0.879
Oc1ccc(C2COc3cc(O)ccc3C2)cc1 (stereo not drawn) [Equol] | 0.718 | 0.762 | 0.801 | 0.77
CC(=O)OCC(=O)NCCCOc1cccc(CN2CCCCC2)c1.Cl [Roxatidine Acetate HCl] | 0.833 | 1.01 | 0.819 | 0.724
CCC1OC(=O)C(C)C(OC2CC(C)(OC)C(O)C(C)O2)C(C)C(OC2OC(C)CC(N(C)C)C2O)C(C)(O)CC(C)C(=O)C(C)C2OC(=O)OC12C (stereo not drawn) [Erythromycin Cyclocarbonate] | 0.716 | 0.95 | 0.798 | 1.12
O=C(C1CCCCC1)N1CC(=O)N2CCc3ccccc3C2C1 (stereo not drawn) [Praziquantel] | 0.523 | 1.14 | 0.53 | 0.895
